What all share (assay): protein-binding microarray (PBM)
Holding throughout (conditions): PBM: ~300 nM protein, 6 mM HEPES pH 7.8, 80 mM KCl, 0.5 mM EDTA, 0.5 mM EGTA, 6% glycerol, 35 ng/ul poly-dIdC, 1% milk, 1 h, room temperature; Ap Aiptasia and Nv Nematostella (sea anemones) / Co Capsaspora / Aq Amphimedon (sponge) / Dm Drosophila / Hu human; RHD is the Rel homology domain; high values mean tight binding; most listed sequences are background and not binding sites; double strand, one strand shown

In experiment [1] the target is T1, GST-Ap-NF-kB RHD (UniProt A0A913YAJ5).
T1 sequence: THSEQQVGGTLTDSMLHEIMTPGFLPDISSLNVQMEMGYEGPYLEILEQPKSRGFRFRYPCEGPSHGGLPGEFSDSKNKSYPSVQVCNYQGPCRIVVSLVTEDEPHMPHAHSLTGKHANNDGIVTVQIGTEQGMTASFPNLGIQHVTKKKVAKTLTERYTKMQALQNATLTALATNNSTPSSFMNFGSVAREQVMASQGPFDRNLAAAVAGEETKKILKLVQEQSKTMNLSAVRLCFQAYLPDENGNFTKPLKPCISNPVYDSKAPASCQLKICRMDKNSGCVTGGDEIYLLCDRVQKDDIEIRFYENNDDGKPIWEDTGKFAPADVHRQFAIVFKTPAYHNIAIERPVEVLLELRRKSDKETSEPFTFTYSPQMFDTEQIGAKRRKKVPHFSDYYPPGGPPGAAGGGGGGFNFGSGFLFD

Experiment [2] addresses T2, GST-Nv-NF-kB (Cys allele) (UniProt E5G601).
T2 sequence: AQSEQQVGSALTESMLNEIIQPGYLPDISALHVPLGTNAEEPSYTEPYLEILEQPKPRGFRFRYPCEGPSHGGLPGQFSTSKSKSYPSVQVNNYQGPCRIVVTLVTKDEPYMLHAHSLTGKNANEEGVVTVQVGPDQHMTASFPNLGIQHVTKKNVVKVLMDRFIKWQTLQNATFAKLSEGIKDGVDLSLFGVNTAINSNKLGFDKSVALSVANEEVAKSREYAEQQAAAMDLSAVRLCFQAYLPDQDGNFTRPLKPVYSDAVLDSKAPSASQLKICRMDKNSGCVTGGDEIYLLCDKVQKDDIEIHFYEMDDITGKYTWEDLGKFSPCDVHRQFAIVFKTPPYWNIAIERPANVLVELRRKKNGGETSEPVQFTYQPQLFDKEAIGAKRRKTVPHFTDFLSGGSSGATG

For experiment [3], the target named is T3, GST-Dm-Relish (UniProt Q94527).
T3 sequence: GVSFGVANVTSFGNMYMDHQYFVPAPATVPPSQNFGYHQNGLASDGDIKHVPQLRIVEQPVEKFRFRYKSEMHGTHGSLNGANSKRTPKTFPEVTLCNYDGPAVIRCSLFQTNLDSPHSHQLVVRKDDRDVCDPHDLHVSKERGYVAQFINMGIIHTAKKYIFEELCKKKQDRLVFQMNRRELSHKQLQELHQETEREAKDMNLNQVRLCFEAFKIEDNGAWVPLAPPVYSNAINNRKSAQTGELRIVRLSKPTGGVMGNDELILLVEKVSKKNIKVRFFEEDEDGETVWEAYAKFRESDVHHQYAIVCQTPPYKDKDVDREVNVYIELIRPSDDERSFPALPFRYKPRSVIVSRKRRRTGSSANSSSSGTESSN

Experiment [4] concerns the target T4, GST-Co-NF-kB (UniProt F1ARL5).
T4 sequence: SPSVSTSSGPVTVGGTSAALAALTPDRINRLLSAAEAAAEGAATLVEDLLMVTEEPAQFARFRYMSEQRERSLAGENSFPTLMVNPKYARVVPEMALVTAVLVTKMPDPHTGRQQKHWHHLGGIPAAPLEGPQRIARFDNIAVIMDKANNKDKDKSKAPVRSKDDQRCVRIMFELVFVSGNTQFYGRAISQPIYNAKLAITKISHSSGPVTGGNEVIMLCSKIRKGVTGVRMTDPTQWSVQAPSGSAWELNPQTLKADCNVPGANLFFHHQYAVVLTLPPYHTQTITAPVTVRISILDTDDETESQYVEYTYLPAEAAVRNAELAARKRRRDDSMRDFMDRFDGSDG

Here are results for eleven sequences from publication PMC5700166.

Only a part is listed here, and it is no random draw. For part of these data: The list includes weakly bound sequences.

As for “CCGATTAACATCAGGGCTGCCCCTGATGTTAATCGGGTCTTGATTCGCTTGACGCTGCTG”, the binding signal came out at 4.09 z-score in experiment [1], 3.62 z-score in experiment [2] and 4.09 z-score in experiment [3].

With “CCGATTAACATCAGGGGTACACATGATGTTAATCGGGTCTTGATTCGCTTGACGCTGCTG”, the binding signal in experiment [1] was 1.77 z-score; in experiment [2] it was 0.248 z-score; in experiment [3] it was 1.13 z-score.

For “CCGATTAACATCAAGGGGATTTCTGATGTTAATCGGGTCTTGATTCGCTTGACGCTGCTG”, the values for the binding signal in experiment [1], in experiment [2] and in experiment [3] were 9.69 z-score, 10.8 z-score and 9.09 z-score, respectively.

For the sequence “CCGATTAACATCAAAGATCCCCCTGATGTTAATCGGGTCTTGATTCGCTTGACGCTGCTG”, the binding signal in experiment [1] turned out to be 7.86 z-score; in experiment [4], 6.69 z-score.

For the sequence “CCGATTAACATCAACCATGGGAATGATGTTAATCGGGTCTTGATTCGCTTGACGCTGCTG”, the values for the binding signal in experiment [1], in experiment [2] and in experiment [3] were 0.797 z-score, 1.18 z-score and 0.454 z-score, respectively.

On to “CCGATTAACATCACCGTGGGAAATGATGTTAATCGGGTCTTGATTCGCTTGACGCTGCTG”, for which the binding signal in experiment [1] was 1.9 z-score; in experiment [4] it was 3.18 z-score.

As for “CCGATTAACATCAAGGGGATTCCTGATGTTAATCGGGTCTTGATTCGCTTGACGCTGCTG”, the binding signal was determined as 10.4 z-score in experiment [1], 10.4 z-score in experiment [2] and 9.9 z-score in experiment [3].

For “CCGATTAACATCAAAATTTGCCCTGATGTTAATCGGGTCTTGATTCGCTTGACGCTGCTG”, the binding signal worked out at 0.557 z-score in experiment [1], 0.695 z-score in experiment [2] and 0.993 z-score in experiment [3].

In the case of “CCGATTAACATCAGGGGATTAAATGATGTTAATCGGGTCTTGATTCGCTTGACGCTGCTG”, the binding signal in experiment [1] was found to be 4.91 z-score; in experiment [2], 6.29 z-score; in experiment [3], 5.28 z-score.

Take “CCGATTAACATCAATAATTTCCCTGATGTTAATCGGGTCTTGATTCGCTTGACGCTGCTG”: the binding signal in experiment [1] worked out at 4.38 z-score; in experiment [4], 4.82 z-score.

For the sequence “CCGATTAACATCAATTCCCAACATGATGTTAATCGGGTCTTGATTCGCTTGACGCTGCTG”, the binding signal came to 0.695 z-score in experiment [1], 2.32 z-score in experiment [2] and 0.817 z-score in experiment [3].
